Assay results from the RNAGym collection of RNA variant scans (doi:10.7554/elife.90254).
The source gives no read counts; variants with many changes may rest on few reads.

B1: LINE1-full (parent)
chain: UACGUAGGUGGUUUUCCCCUGAUAGUGCUAAGGGGGCCUGGAAGUUUGGACUGGGCAGAGCUCAACACAGCGUGGCAAAGUGGCUGUGGCUAGACUGCCUCUCUGGAUUCCUCGUCACUCAGCAGGGCAUCUCUGAGAGAAAUGCC

Variants of: B1
Assay: self-cleavage, relative activity (ratio to wild type); higher = more cleavage; in vitro, sequencing; the parent is a self-cleaving ribozyme

Variant | self-cleavage
UACGUAGGCGGUUUUCCCCUGAUAGUGCUAAGGGGGCCUGGAAGUUUGGACUGGGCAGAGCUCAACACAGCGUGGCAGAGUGGCUGUGGCUAGACUGCCUCUCCGGAUUCCUCGUCACUCAGCAGGACAUCUCUGAGAGAAAUGCC | 1.13
UACGUAGGUGGUUUUCCCCCGAUAGCGCUAAGGGGGCCUGGAAGUUUGGACUGGGCAGAGCUCAACACAGCGUGGCAAAGCGGCUGUGGCUAGACUGCCUCUCUGGAUUCCUCGUCACUAAGCAGGGCAUCUCUGAGAGAAAUGCC | 0.51
UACGUAGGUGGUUUUCCCCUGAUAGUGCUAAGGGGGCCUGGAAGUUUGGACUGGGCAGAGCCCAACACAGCGUGGCAAGGUGGCUGUGGCUAGACUGCCACUCUGGAUUCCUCGCCACUCAGCAGGGCAUCUCUGAGAGAAACGCC | 0
UACGUAGGUGGUUUUCCCCUGAUAGUGCUCAGGGGGCCUGGAAGUUUGGACUGGGCAGAGCUCAACACAGCGUGGCAAAGUGGCUGUGGCUAGACAGCCUCUCUGGAUUCCUCGUCACUCGGCAGGGCAUCCCUGAGAGAAAUGCC | 0.22
UACGUAGGUGGUUUUCCCCUGAUAGUGCUAAGGGGGCCUGGAAGUUUGGACUGGGCAGAGCUCAACACAGCGUGGCAAAGUGGCUGUGGCUAGACCGCCUCUCUGGAUUCCUCGUCACUCGGCAGGGCAUCUCCGAGAGGAAUGCC | 0
UACGUAGGUGGUUUUCCCCUGAUAGUGCUAAGGGGGCCUGGAAGUUUGGACUGGGCAGAGCUCAACACAGCGUGGCAAAGUGGCAGUGGCUAGACUGCCUCCCUGGAUUCCUCGUCACUCAGCAGGGCAUCUCUGAGAGAAAAGCC | 0.03
UACGUAGGUGGUUUUCCCCUGAUAGUGCUAAGGGGGCCUGGAAGUUGGGACUGGGCAGAGCUCAACACAGCGUGGCAAAGUGGCUGUGGCUAGACUGCCUCUCUGGAUUCCUCGCCACUCAGCAGGGCGUCUCUGAGAGAAAUGCC | 0.77
UACGUAGGUGGUUUUCCCCUGAUGGUGCUAAGGGGGCCUGGAAGUUUGGACUGGGCAGAGCUCAACACAGCGUGGCAAAGUGGCUGUGGCAAGACUGCCUCUCUGGAUUCCUCGUCACCCAGCAGGGCAUCUCUGAGAGAAAUGCC | 0.89
UACGUAGGUGGUUUUCCCCUGAUAGUGCUAAGGGGGCCUGGAAGUUUGGACUGGGCAGAGCUCAACACAGCGUGGCUAAGUGGCUGUGGCCAGACUGCCCCUCUGGAUUCCUCGUCACUCAGCAGGGCAUCUCUGAGAGAAAUGCC | 0.88
UACGUAGGUGGGUUUCCCCUGAUAGUGCUAAGGGGGCCUGGAAGUUUGGACUGGGCAGAGCUCAACACAGCGUGGCGAAGUGGCUGUGGCUAGACUGCCUCUCUGGAUUCCUCGUCACUCAGCUGGGCAUCUCUGAGAGAAAUGCC | 1.3
UACGUAGGUGGUUCUCCCCUGAUAGUGCUAAGGGGGCCUGGAGGUUUGGACUGGGCAGAGCUCAACACAGCGUGGCAAAGCGGCUGUGGCUAGACUGCCUCUCUGGAUUCCUCGUCACUCAGCAGGGCAUCUCUGAGAGAAAUGCC | 0
UACGUAGGUGGUUUGCCCCUGAUAGUGCUAAGGGGGCCUGGAAGUUUGGACUGGGCGGAGCUCAGCACAGCGUGGCAAAGUGGCUGUGGCUAGACUGCCUCUCCGGAUUCCUCGUCACUCAGCAGGGCAUCUCUGAGAGAAAUGCC | 0.92
UACGUAGGUGGGUUUCCCCUGAUAGUGCUAAGGGGGCCUGGAAGUUCGGACUGGGCAGAGCUCAACACAGCGUGGCAAAGUGGCUGUGGCUAGACUGCCUCUCUGGAUUCCUCGACACUCAGCAGGGCAUCUCUGAGAGAGAUGCC | 1.47
UACGAAGGUGGUUCUCCCCUGAUAGUGCUAAGGGGGCCUGGAAGUUUGGACUGGGCAGAGCUCAACACAGCGUGGCAAAGUGGCUGUGGCUAGACUGCCUCUCUGGAUUCCUCGUCACACAGCAGGACAUCUCUGAGAGAAAUGCC | 1.06
UACGUAUGUGGUUUUCCCCAGAUGGUGCUAAGGGGGCCUGGAAGUUUGGACUGGGCAGAGCUCAACACAGCGUGGCAAAGUGGCUGCGGCUAGACUGCCCCUCUGGAUUCCUCGUCACUCAGCAGGGCAUCUCUGAGAGAAAUGCC | 0
UACGUAGGUGGUUUUCCCCUGAUAGUGCUAAGGGGGCCUGGAAGAUUGGACUGGGCGGAGCUCAACACAGCGUGGCAAAGUGGCUGUGGCUAGACUGCCUCUCUGGAUUCCUCGUCACUCUGCAGGGCAUCUCUGAGAGAAAUGCC | 0.84
UACGUAGGUGGUUUUCCCCUGAUAGUGCUAAGGGGGCCUGGAGGUUUGGACUGGGCAGAGCUCAACACAGCGUGGCGAAGUGGCUGUGGCUAGACUGCCUCUCUGGAUUCCCCGUCACUCAGCAGGGCAUCUCUGAGAGAAAUGCC | 1.19
UACGUAGGUGGUUUUCCCCUGAUAGUGCCAAGGGGGCCUGGAAGUUUGGACUGGGCAGGGCUCAACACAGCGUGGCAAAGUGGCCGUGGCUAGACUGCCUCUCUGGAUUCCUCGUCACUCAGCAGGGCAUCUCUGAGAGAAAUGCC | 0
UACGUAGGUGGUUUUCCCCUGAUAGUGCUAAGGGGGCCUGGAAGUUUGGACUGGGCAGAGCUCAACACAGCGUGGCUAAGUGGCUGUGGCUAGACUGCCUCUUUGGAUUCCUCGUCACUCAGCAGGGCGUCCCUGAGAGAAAUGCC | 0.86
UACGCAGGUGGUUUUCCCCUGAUAGUGCUAAGGGGGCCUGGAAGUUUGGACUGGGCAGAGCUCAACACAGCGUGGCAAAGUGGCUGUGGCUAGACUGCCUCUCUGGAUUCCUCGUCACUCAGCAGGGCAUCUCGGAGAGGAAUGCC | 2.06
